Data published in PubChem BioAssay AID1346428 (National Center for Advancing Translational Sciences (NCATS), 2018).
Where “and” joins values, the source holds several entries; their conditions need not be identical. Equal values may be shown once. The campaign covered roughly 48,000 compounds. About 1,200 (2.5%) were called active. Another 2% or so got no clear call; they are omitted.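 The calls were made as follows: active = activation of at least 60% and not above a set upper limit (about 1 call in 100 departs from these limits); inconclusive = activation of 40% to 60%, or above that upper limit; inactive = activation under 40%.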 The list shows a part of the results.

Each compound was assayed against Probable G-protein coupled receptor 32 (Homo sapiens) (UniProt O75388) (assay: qHTS for Agonists of Human Resolvin D1 Receptor DRV1). Conditions: CHO-K1 GPR32 beta-arrestin PathHunter luminescence, 90 min; at 76.9 µM; active compounds read high; zero percent set by DMSO-only wells.
UniProt O75388, sequence (O75388 whole entry, looked up): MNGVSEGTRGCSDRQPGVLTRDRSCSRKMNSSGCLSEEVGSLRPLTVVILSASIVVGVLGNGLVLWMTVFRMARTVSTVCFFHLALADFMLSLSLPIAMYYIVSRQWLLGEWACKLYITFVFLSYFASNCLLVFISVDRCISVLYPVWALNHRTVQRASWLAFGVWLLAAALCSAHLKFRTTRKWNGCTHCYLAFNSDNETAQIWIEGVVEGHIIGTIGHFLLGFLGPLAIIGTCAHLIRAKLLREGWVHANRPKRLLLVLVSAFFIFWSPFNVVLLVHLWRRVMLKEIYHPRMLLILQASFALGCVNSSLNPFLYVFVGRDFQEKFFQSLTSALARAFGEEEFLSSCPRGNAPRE
Method in brief: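 Engineered CHO-K1 line co-expressing GPR32-ProLink and EA-beta-arrestin. Compound treatment lasted 90 min at 37 °C. Luminescence was recorded after 1 h with substrate at ambient temperature, relative to DMSO basal wells.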
Also: 0% is about no effect.

activation, inactive:
O=C(Nc1ccc(C(F)(F)F)cc1)c1cc(S(=O)(=O)NC2CCCCCC2)ccc1F 5%
Cc1nc2ccccn2c(=O)c1CCN1CCC(C(=O)c2ccc(F)cc2)CC1 17.4% and 4%
CCCOc1ccc(C2c3c(oc4ccccc4c3=O)C(=O)N2c2ccc(C)cn2)cc1OCC (stereo not drawn) -7.32%
CCOC(=O)c1c(C)[nH]c(C)c1S(=O)(=O)N1CCC(C(=O)N2CCN(c3cccc(C)c3)C(C)C2)CC1 (stereo not drawn) 3.96%
Cc1ccccc1S(=O)Cc1ccc(C(=O)NC2CCCCCC2)o1 (stereo not drawn) 2.23%
CCOc1cccc2sc(NC(=O)c3ccc(S(=O)(=O)N4CCCc5ccccc54)cc3)nc12 -20.2%
Cc1ccc(CCNC(=O)c2ccc3c(=O)n(-c4ccc(C)cc4)c(=O)[nH]c3c2)cc1 24.5%
Cc1ccccc1N1CCN(CCc2nnc3n2CCCC3)CC1 8.86%
O=C(CNS(=O)(=O)c1cccs1)N1CCN(c2ccccc2Cl)CC1 -10.9%
COc1ccc2oc(=O)c(-c3nc(-c4cc(OC)c(OC)c(OC)c4)no3)cc2c1 -6.24%
Cc1ccc(C(=O)Nc2ccc3nc(SCC(=O)N4CCc5ccccc54)sc3c2)cc1 -4.45%
Cc1ccc2c(CNCc3cccc(Cl)c3)c(C(=O)O)n(Cc3ccc(F)cc3Cl)c2c1 1.51%
Cc1cc2oc(C(=O)Nc3sc4c(c3C(=O)NCc3ccco3)CCC4)cc(=O)c2cc1C -10.2%
O=C(Cn1cc(SCc2cccc(F)c2)c2ccccc21)N1CCCC1 -24.1%
CCC(=O)c1ccc2c(c1)N(CCCN(C)C)c1ccccc1S2 2.29% and -21.3%
CC(CNC(=O)CCn1c(=O)c2cccn2c2ccc(F)cc21)c1ccccc1 (stereo not drawn) -12.1%
CCOC(=O)c1ccccc1NC(=O)CSc1c(C)cnc2c1c(=O)n(C)c(=O)n2C -8.12%
COCCCNC(=O)c1ccc(CSc2nc3cccnc3n2Cc2ccc(OC)cc2)cc1 -9.6%
Cc1nc2c(c(C)c1CCC(=O)N1CCN(c3ccccc3)CC1)c(=O)n(C)c(=O)n2C 2.59%
O=C(Nc1cccc(Cl)c1Cl)c1cc(S(=O)(=O)N2CCCCC2)ccc1F -9.39%
COc1cccc(NC(=O)c2c(-c3ccc(C)cc3)nnc3ccccc23)c1 7.01%
COc1ccc(CCNC(=O)C2CC(=O)N(CCc3ccccc3)C2)cc1OC (stereo not drawn) 1.54%
O=C(CCNNC(=O)c1ccncc1)NCc1ccccc1 -48% and -14.4%
